{
  "source": "paper PMC4336329",
  "about": "(PLoS ONE, 2015)",
  "note": "The whole screen tested about 310,000 compounds, of which about 2,200 (0.71%) showed an effect of 50% or more. The effect is printed as a negative number. This is one part of the list.",
  "data": [
    {"molecular_target": "human ether-à-go-go-related gene (hERG) potassium channel (human, UniProt Q12809)", "sequence (Q12809 whole entry, looked up)": "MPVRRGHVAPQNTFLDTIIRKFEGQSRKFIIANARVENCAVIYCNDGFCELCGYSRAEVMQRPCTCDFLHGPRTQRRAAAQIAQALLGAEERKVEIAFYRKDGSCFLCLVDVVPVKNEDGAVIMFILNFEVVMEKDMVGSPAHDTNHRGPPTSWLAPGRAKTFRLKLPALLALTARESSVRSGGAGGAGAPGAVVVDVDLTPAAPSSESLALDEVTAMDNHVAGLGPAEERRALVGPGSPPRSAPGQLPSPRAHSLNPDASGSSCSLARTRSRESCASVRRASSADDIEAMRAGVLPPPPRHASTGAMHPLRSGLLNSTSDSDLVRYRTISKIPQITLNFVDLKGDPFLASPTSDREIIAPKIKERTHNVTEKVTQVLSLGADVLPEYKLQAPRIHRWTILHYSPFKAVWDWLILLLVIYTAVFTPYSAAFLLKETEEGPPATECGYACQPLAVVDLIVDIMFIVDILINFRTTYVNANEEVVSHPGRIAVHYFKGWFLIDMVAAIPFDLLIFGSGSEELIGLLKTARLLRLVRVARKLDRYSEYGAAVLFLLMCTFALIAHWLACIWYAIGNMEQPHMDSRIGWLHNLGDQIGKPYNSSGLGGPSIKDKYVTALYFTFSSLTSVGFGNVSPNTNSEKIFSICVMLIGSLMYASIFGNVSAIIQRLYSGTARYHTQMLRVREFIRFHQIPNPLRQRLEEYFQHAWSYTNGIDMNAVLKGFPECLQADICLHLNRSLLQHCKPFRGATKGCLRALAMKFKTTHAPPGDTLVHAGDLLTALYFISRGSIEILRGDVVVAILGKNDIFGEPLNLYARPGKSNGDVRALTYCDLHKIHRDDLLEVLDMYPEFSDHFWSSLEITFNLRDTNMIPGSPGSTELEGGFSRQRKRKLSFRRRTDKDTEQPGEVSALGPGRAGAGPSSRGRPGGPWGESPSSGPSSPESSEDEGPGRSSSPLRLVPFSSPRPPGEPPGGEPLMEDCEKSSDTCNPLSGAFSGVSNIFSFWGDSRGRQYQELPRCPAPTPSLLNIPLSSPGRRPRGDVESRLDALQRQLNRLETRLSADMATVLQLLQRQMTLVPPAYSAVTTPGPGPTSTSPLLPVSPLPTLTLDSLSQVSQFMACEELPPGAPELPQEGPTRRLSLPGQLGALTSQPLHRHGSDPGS", "experiment": "primary screen, population patch clamp on CHO cells stably expressing hERG", "units": {"hERG current change (%, negative = inhibition) at 1uM": "%"}, "values": [
      {"compound": "CC(=O)Nc1nc(CC(C)C)cc2c1c(=O)oc1ccccc12", "hERG current change (%, negative = inhibition) at 1uM": 13.9},
      {"compound": "CN(C)CCC[C@]1(c2ccc(F)cc2)OCc2cc(C#N)ccc21", "hERG current change (%, negative = inhibition) at 1uM": 4},
      {"compound": "COc1cc(C(=O)OC2CCCCC2=O)cc(OC)c1C", "note": "(centres unmarked)", "hERG current change (%, negative = inhibition) at 1uM": 14.2},
      {"compound": "CCCCC(CCCC)=N/N=C/c1c(O)n(CC)c2cc(C3=NNC(=O)CC3)ccc12", "hERG current change (%, negative = inhibition) at 1uM": 8.92},
      {"compound": "Cc1cc(C)c2cc(CN(CCO)C(=O)Nc3ccc(Cl)cc3)c(=O)[nH]c2c1", "hERG current change (%, negative = inhibition) at 1uM": 3.03},
      {"compound": "Cc1ccc2[nH]c3c(=O)n(CCN4CCOCC4)cnc3c2c1", "hERG current change (%, negative = inhibition) at 1uM": 6.2},
      {"compound": "CC(Sc1cccc[n+]1[O-])C(=O)Nc1ccc([N+](=O)[O-])cc1Cl", "note": "(centres unmarked)", "hERG current change (%, negative = inhibition) at 1uM": 14.8},
      {"compound": "CSc1ccc(C(=O)C2CCCN(C(=O)c3cccc(N4CCOCC4)c3)C2)cc1", "note": "(centres unmarked)", "hERG current change (%, negative = inhibition) at 1uM": 7.13},
      {"compound": "O=C(CSc1nc2c(c(=O)n1-c1ccccc1)SCC2)NCC1CCCO1", "note": "(centres unmarked)", "hERG current change (%, negative = inhibition) at 1uM": 22.4},
      {"compound": "O=C(CSCc1ccc(Cl)cc1)Nc1ccc(S(=O)(=O)N2CCOCC2)cc1", "hERG current change (%, negative = inhibition) at 1uM": 6.24},
      {"compound": "CCOc1ccc(NS(=O)(=O)c2ccc(C(=O)NCc3cccnc3)cc2)cc1", "hERG current change (%, negative = inhibition) at 1uM": 3.77},
      {"compound": "Cc1cccc(C)c1NC(=O)c1ccc(-n2cncn2)nc1", "hERG current change (%, negative = inhibition) at 1uM": -4.02},
      {"compound": "O=C1O/C(=C\\c2ccccc2)c2ccccc21", "hERG current change (%, negative = inhibition) at 1uM": 0.366},
      {"compound": "COc1ccc(C2C(C(=O)N3CCCCC3)CCC(=O)N2c2cc(OC)c(OC)c(OC)c2)cc1", "note": "(centres unmarked)", "hERG current change (%, negative = inhibition) at 1uM": 13.4},
      {"compound": "COc1ccc(C2=NN(Cc3c(F)cccc3Cl)C(=O)CC2)cc1", "hERG current change (%, negative = inhibition) at 1uM": 4.06},
      {"compound": "CCOC(=O)c1ccc(NC(=O)CSc2nnc(CCc3ccc(C)o3)n2-c2ccccc2)cc1", "hERG current change (%, negative = inhibition) at 1uM": 4.53},
      {"compound": "COc1ccc(S(=O)(=O)c2c(O)c3ccc(C(=O)Nc4cccc(F)c4)cc3[nH]c2=O)cc1", "hERG current change (%, negative = inhibition) at 1uM": 11},
      {"compound": "O=c1cc(CSc2ccccc2)nc(-c2ccncc2)[nH]1", "hERG current change (%, negative = inhibition) at 1uM": 13.6},
      {"compound": "Cc1ccc(C(C)C)c(OCC(=O)N2CCN(c3ncccn3)CC2)c1", "hERG current change (%, negative = inhibition) at 1uM": 10},
      {"compound": "CN1CCN(C(=O)c2cc(S(=O)(=O)Nc3ccccc3F)c(Cl)cc2Cl)CC1", "hERG current change (%, negative = inhibition) at 1uM": 6.49},
      {"compound": "O=C1CN(C(=O)c2ccccc2F)c2ccccc2N1", "hERG current change (%, negative = inhibition) at 1uM": 11.9},
      {"compound": "CCCc1nnc(NC(=O)CCC(=O)N2CCCCCC2)s1", "hERG current change (%, negative = inhibition) at 1uM": 8.94},
      {"compound": "COc1ccc(CCNC(=O)CSc2nc(O)c(C(C)C)c(=O)[nH]2)cc1OC", "hERG current change (%, negative = inhibition) at 1uM": 12.5},
      {"compound": "COC(=O)C1=C(c2cccc(OC)c2OC)C[C@@H]2CC[C@H]1N2C(=O)NCc1ccc(C(F)(F)F)cc1", "hERG current change (%, negative = inhibition) at 1uM": 6.08},
      {"compound": "COc1ccc(C2C(C(=O)N3CCC(C(N)=O)CC3)CC(=O)N2c2ccc(OC)cc2)cc1", "note": "(centres unmarked)", "hERG current change (%, negative = inhibition) at 1uM": 2.44},
      {"compound": "O=C(Cn1cnc2c(oc3ccccc32)c1=O)NCC1CCCO1", "note": "(centres unmarked)", "hERG current change (%, negative = inhibition) at 1uM": 9.36},
      {"compound": "Clc1ccc(-c2nnc3n2CCCCC3)cc1", "hERG current change (%, negative = inhibition) at 1uM": 2.2},
      {"compound": "CCCCCCNC1=NCCS1", "hERG current change (%, negative = inhibition) at 1uM": 3.28},
      {"compound": "CCC(CC)C(=O)Nc1nc(-c2ccc3c(c2)CCN3C(=O)C2CC2)c(C)s1", "hERG current change (%, negative = inhibition) at 1uM": 17.6},
      {"compound": "O=C(Nc1cccnc1)c1ccc(COc2ccccc2Cl)o1", "hERG current change (%, negative = inhibition) at 1uM": 4.59},
      {"compound": "COc1ccc2nc(NC(=O)c3ccc(NS(=O)(=O)c4cccs4)cc3)sc2c1", "hERG current change (%, negative = inhibition) at 1uM": 12.5},
      {"compound": "COc1ccc(/C=C2\\SC(=O)N(CCn3cnnn3)C2=O)cc1", "hERG current change (%, negative = inhibition) at 1uM": 2.24},
      {"compound": "COc1cc(OC)c(NC(=O)Cn2cnc3sc(C)c(S(=O)(=O)N4CCOCC4)c3c2=O)cc1Cl", "hERG current change (%, negative = inhibition) at 1uM": 10.1},
      {"compound": "COc1cc(-c2cc(C(=O)N(C)Cc3ccccc3)c3ccccc3n2)cc(OC)c1OC", "hERG current change (%, negative = inhibition) at 1uM": 12},
      {"compound": "Cc1cc(/C=C2/NC(=O)NC2=O)c(C)n1-c1cccnc1", "hERG current change (%, negative = inhibition) at 1uM": 15.7},
      {"compound": "CCN(CC)c1ccc2c(c1)C(=O)N(C)C2=O", "hERG current change (%, negative = inhibition) at 1uM": 12.7},
      {"compound": "Cc1cccc(OCC(=O)OC2CCN(C)CC2)c1.Cl", "hERG current change (%, negative = inhibition) at 1uM": 10.2},
      {"compound": "CCCCC(=O)Nc1nnc(S(=O)(=O)N2CCCc3ccccc32)s1", "hERG current change (%, negative = inhibition) at 1uM": 18.8},
      {"compound": "O=C(Cc1ccc(-c2ccccc2)cc1)Nc1ccccn1", "hERG current change (%, negative = inhibition) at 1uM": 15.4},
      {"compound": "COc1ccc(/C=C/C(=O)NC(=S)NN2CCCCC2c2cccnc2)cc1OC", "note": "(centres unmarked)", "hERG current change (%, negative = inhibition) at 1uM": 9.17},
      {"compound": "COC(=O)c1ccc(NC(=O)COC(=O)C2=NN(c3ccccc3)C(=O)CC2)cc1", "hERG current change (%, negative = inhibition) at 1uM": 7.17},
      {"compound": "Cc1cccc(C2c3[nH]c4ccccc4c3CCN2Cc2ccc(C)s2)n1", "note": "(centres unmarked)", "hERG current change (%, negative = inhibition) at 1uM": 17.9},
      {"compound": "CN(C)CCNC(=O)c1cccn(Cc2cc(C(F)(F)F)cc(C(F)(F)F)c2)c1=O", "hERG current change (%, negative = inhibition) at 1uM": -3.69},
      {"compound": "Br.O=[N+]([O-])c1cccc(-n2nnnc2CN2CCCC2)c1", "hERG current change (%, negative = inhibition) at 1uM": 3.25},
      {"compound": "C#CCOCCOCCOCCNc1nc(N2CCN(C(=O)[C@H]([C@@H](C)CC)n3cc([C@@H](N)Cc4ccc(O)cc4)nn3)CC2)nc(N2CCN(C(=O)[C@H]([C@@H](C)CC)n3cc([C@@H](N)Cc4ccc(O)cc4)nn3)CC2)n1.Cl", "hERG current change (%, negative = inhibition) at 1uM": 7.88},
      {"compound": "CC(C)(C)c1ccc(OCCC(=O)NCC(c2cccs2)N2CCOCC2)cc1", "note": "(centres unmarked)", "hERG current change (%, negative = inhibition) at 1uM": -7.09},
      {"compound": "O=C(Cn1ncc2c(=O)oc3ccccc3c21)N1CCN(C(=O)c2ccco2)CC1", "hERG current change (%, negative = inhibition) at 1uM": -37},
      {"compound": "COc1ccc(-c2nn(-c3ccccc3)cc2C(=O)Nc2ccc(C(=O)O)cc2)cc1OC", "hERG current change (%, negative = inhibition) at 1uM": 13.5},
      {"compound": "Cn1c(=NC(=O)CCS(=O)(=O)c2ccccc2)sc2cc(F)ccc21", "hERG current change (%, negative = inhibition) at 1uM": 13.6},
      {"compound": "CCOC(=O)C1=C(C)N=C2c3ccccc3C(=O)C2C1c1ccc(Cl)cc1", "note": "(centres unmarked)", "hERG current change (%, negative = inhibition) at 1uM": 10.9},
      {"compound": "CCc1ccc(NC(=O)CC2NCCNC2=O)cc1", "note": "(centres unmarked)", "hERG current change (%, negative = inhibition) at 1uM": 9.3},
      {"compound": "CCn1cc(C(=O)O)c(=O)c2cnc(N3CCN(C(=S)NC(=O)c4ccc(Cl)cc4Cl)CC3)nc21", "hERG current change (%, negative = inhibition) at 1uM": 14.2},
      {"compound": "CCCCN(C(=O)CCCc1nc2ccccc2s1)c1c(N)n(CCCC)c(=O)[nH]c1=O", "hERG current change (%, negative = inhibition) at 1uM": 0.792}
    ]}
  ]
}
